Experimental data as given in PubChem BioAssay AID1745853 (National Center for Advancing Translational Sciences (NCATS), 2022).
Several values for one entry are separate records, joined by “and”; a condition that tells them apart may be missing. Equal values may be shown once. Some of the results follow. The main result of the screen is listed elsewhere. These columns were measured beside it and carry no call.

Columns and labels:
Experiment in all cases: Primary Screen for Target Class Profiling of Small Molecule Inhibitors of Methyltransferases
[1] = molecular target: Glycine N-methyltransferase (Homo sapiens) (UniProt Q14749); conditions: purified enzyme, MTase-Glo SAH luminescence; measured here: GNMT inhibition; at 40 µM; stronger effect = lower value
Method in brief: (§1)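 Each enzyme was assayed with SAM and its substrate. SAH formation detected by MTase-Glo luminescence; single-point 40 uM screen[…].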

[2] = molecular target: Guanidinoacetate N-methyltransferase (Homo sapiens) (UniProt Q14353); conditions: purified enzyme, MTase-Glo SAH luminescence; measured here: GAMT inhibition; at 40 µM; stronger effect = lower value
Method in brief: as §1

[3] = molecular target: Histamine N-methyltransferase (Homo sapiens) (UniProt P50135); conditions: purified enzyme, MTase-Glo SAH luminescence; measured here: HNMT inhibition; at 40 µM; stronger effect = lower value
Method in brief: as §1

[4] = molecular target: Nicotinamide N-methyltransferase (Homo sapiens) (UniProt P40261); conditions: purified enzyme, MTase-Glo SAH luminescence; measured here: NNMT inhibition; at 40 µM; stronger effect = lower value
Method in brief: as §1

[5] = molecular target: Phenylethanolamine N-methyltransferase (Homo sapiens) (UniProt P11086); conditions: purified enzyme, MTase-Glo SAH luminescence; measured here: PNMT inhibition; at 40 µM; stronger effect = lower value
Method in brief: as §1
% is set by controls: 0 for no effect and ±100 for the full control effect.

Row | SMILES | activity change, negative = inhibition [1] | activity change, negative = inhibition [2] | activity change, negative = inhibition [3] | activity change, negative = inhibition [4] | activity change, negative = inhibition [5]
1 | COC[C@H]1C[C@@H](NS(C)(=O)=O)[C@H](O)[C@@H]1O | -5.03% | -5.7% | -10.7% | -7.53% | 0.799%
2 | CC(=O)N1CCC(N2CC[C@H](c3nc4ccccc4s3)C2)CC1 | -6.16% | -7.66% | -2.49% | -9.44% | -5.83%
3 | COC(=O)C1=CO[C@@H](O[C@@H]2O[C@H](CO)[C@@H](O)[C@H](O)[C@H]2O)C2C1C(=O)C[C@H]2C (stereo partly drawn) | 2.68% | 1.02% | 8.43% | -11.9% | 7.09%
4 | CCC(C)NC(=O)c1ccc2c(=O)n(CC(C)C)c3nn(Cc4ccccc4)c(=O)n3c2c1 (stereo not drawn) | -6.87% | 3.16% | 3.45% | -5.53% | 2.58%
5 | c1ccc(-c2n[nH]c3c2oc2ccccc23)cc1 | – | 4.78% | – | -14.4% | 7.31%
6 | CCOc1ccc(N2C(=O)c3cc(-c4ccco4)nn3CC2(C)C(=O)NC2CCCCCC2)cc1 (stereo not drawn) | -1.28% | 0% | 2.6% | 3.72% | -3.97%
7 | OCC1(CC2CC2)CCCN(Cc2ccc(C(F)(F)F)nc2)C1 (stereo not drawn) | -1.61% | 0.293% | 0.611% | -6.98% | -1.18%
8 | Cn1cc(-c2ccc(S(=O)(=O)n3ccc(/C=C/C(=O)Nc4ccccc4N)c3)cc2)cn1 | -6.17% | -18.9% | -3.22% | -44.2% | -18.9%
9 | O=C(COc1ccccc1)N1CCC(OCc2ccccc2)C1 (stereo not drawn) | -5.75% | -8.63% | -6.13% | -5.89% | -7.28%
10 | CC(C)Cn1c(=O)c2ccccc2n2c(CCC(=O)NCCCN3CCN(c4ccccc4F)CC3)nnc12 | -1.9% | 0.633% | 1.86% | 1.17% | 1.15%
11 | O=C(NCCc1ccc(Cl)cc1)c1ccc2c(=O)[nH]c3c(C(=O)NCC4CCCO4)sc(=S)n3c2c1 (stereo not drawn) | -47.6% | 0% | -0.773% | -29.7% | -25.2%
12 | CCc1ccc(N2C(=O)c3c(C(=O)OC)ncn3CC2(C)C(=O)NC2CCCC2)cc1 (stereo not drawn) | 0.806% | -0.198% | -1.26% | -3.81% | -2.63%
13 | CO[C@H]1/C=C\O[C@@]2(C)Oc3c(C)c(O)c4c(O)c(c5c(nc6cc(C)ccn65)c4c3C2=O)NC(=O)/C(C)=C\C=C/[C@H](C)[C@H](O)[C@@H](C)[C@@H](O)[C@@H](C)[C@H](OC(C)=O)[C@@H]1C | -0.41% | 18.2% | 10.4% | -2.62% | 7.93%
14 | O=C(Cc1ccc(Cl)cc1)N1CCc2c(nc3cc[nH]n3c2=O)C1 | -13.5% | -2.3% | -4.84% | -29.1% | -3.6%
15 | C=C(C)C(=O)O[C@H]1C[C@@](C)(O)C(=O)CC(O)/C(C)=C\[C@H]2OC(=O)C(=C)[C@H]12 (stereo partly drawn) | 0% | -2.77% | 5.26% | -12.2% | 5.5%
16 | O=C(c1ccc(-c2cccc(O)c2)nc1)N1CCCN(c2ncccn2)CC1 | -4.82% | -4.69% | -6.09% | -8.7% | -5.82%
17 | Cc1ccccc1CNC(=O)c1cc2n(n1)CC(C)(C(=O)NC1CCCC1)N(C)C2=O (stereo not drawn) | -0.281% | 3.83% | 0.477% | 4.51% | 0.32%
18 | CC/C(=C(\c1ccccc1)c1ccc(OCCN(C)C)cc1)c1ccccc1 | 8.65% and 7.47% | 10.4% and 12.8% | 3.08% and 10.7% | -12.4% and -6.51% | -2.01% and 3.17%
19 | COCCNc1cc(-c2noc([C@@H]3CCCN3CC(C)C)n2)ccn1 | -50.6% | -42.7% | -12.6% | -38.7% | -23.5%
20 | CN1CCN(c2cc(=O)c3ccnc(Nc4ccc(F)c(Cl)c4)c3o2)CC1 | -18.4% | -9.73% | -30.7% | -33.8% | -7.07%
21 | COc1cccc(CNC(=O)Cn2nc3n(Cc4ccc(F)cc4)c(=O)c4ccccc4n3c2=O)c1 | 1.14% | 4.99% | 5.31% | -3.94% | 0.328%
22 | C=CCn1c(=O)c2ccc(C(=O)NC(C)CC)cc2n2c(=O)n(CC(=O)Nc3ccccc3)nc12 (stereo not drawn) | -1.01% | 1.68% | -2.48% | -1.37% | -0.156%
23 | O=C(NCCCNC(=O)c1ccc[nH]c1=O)c1cc(-c2ccccc2)on1 | -1.86% | -4.42% | 10.8% | -14.6% | -0.441%
24 | CCCN1CCCC2(CCN(C(=O)c3ccc4nc(C)sc4c3)C2)C1=O (stereo not drawn) | -1.66% | -1.18% | 0.108% | -7.05% | 11.6%
25 | CCOC(=O)CNC(=O)C1(C)Cn2nc(C(=O)OCC)cc2C(=O)N1c1ccc(Cl)cc1 (stereo not drawn) | -5.55% | -0.59% | -0.417% | -7.76% | -3.69%
26 | COc1ccc(CCNC(=O)C23CCC=C2N(C2CCCC2)C(=O)CC3)cc1OC (stereo not drawn) | -1.64% | -0.33% | 1.65% | -6.09% | -13.2%
27 | Cc1ccccc1CNC(=O)c1cc2n(n1)CC(C)(C(=O)NC1CCCCCC1)N(C)C2=O (stereo not drawn) | 2.46% | 0% | -1.28% | 0.456% | -3.8%
28 | COC(=O)c1cc2n(n1)CC(C)(C(=O)NC1CCC(C)CC1)N(Cc1ccccc1F)C2=O (stereo not drawn) | 4.18% | 0.589% | 9.89% | -0.196% | 2.59%
29 | Cc1cccc(NC(=O)N2Cc3c(sc4c3CCCC4)-n3cccc3C2c2cccc(F)c2)c1 (stereo not drawn) | 2.65% | 1.19% | 2.66% | 1.52% | 4.62%
30 | Cc1ccncc1-c1c(C)nn2c1N(Cc1ccc(C(=O)O)cc1)CCC2 | -5.08% | -3.68% | -1.73% | -6.96% | -6.91%
